The values that follow come from patent publication US9763922B2 (priority 2014, dated 2017).

In the experiment the target is BRD4 BD1 (Homo sapiens (Human), UniProt O60885). The settings on record: read-out: BRD4 Alpha IC50.

The term IC50 denotes the concentration at which inhibition is half-maximal. Regarding `CC(=O)N1CCc2c(c(Nc3cccc(-c4cn[nH]c4)c3)nn2C)C1` [Example 82, (S,S)-1-[3-[3-(2,2-difluoroethyl)-6-(1-methylpyrazol-4-yl)-3,4-dihydro-2H-quinolin-1-yl]-1-tetrahydrofuran-3-yl-6,7-dihydro-4H-pyrazolo[4,3-c]pyridin-5-yl]ethanone], the IC50 worked out at 5.38 µM.

Consider `CC(=O)N1CCc2c(c(Nc3ccc(-c4cccc(C)c4)cc3)nn2C)C1` [Example 117, 1-[3-[3-cyclopropyl-6-(1-methylpyrazol-4-yl)-3,4-dihydro-2H-quinolin-1-yl]-1-((S)-tetrahydrofuran-3-yl)-6,7-dihydro-4H-pyrazolo[4,3-c]pyridin-5-yl]ethanone], for which the IC50 turned out to be 3.99 µM.

For `COc1ccc(-c2ccc(Nc3nn(C)c4c3CN(C(C)=O)CC4)cc2)cc1` [Example 125, 1-[3-[7-chloro-6-(1-methylpyrazol-4-yl)-3,4-dihydro-2H-quinolin-1-yl]-1-[(3S)-tetrahydrofuran-3-yl]-6,7-dihydro-4H-pyrazolo[4,3-c]pyridin-5-yl]ethanone], the IC50 was found to be 3.53 µM. For `CC(=O)N1CCc2c(c(Nc3ccc(-c4ccc(C#N)cc4)cc3)nn2C)C1` [Example 126, 1-[5-acetyl-1-[(3S)-tetrahydrofuran-3-yl]-6,7-dihydro-4H-pyrazolo[4,3-c]pyridin-3-yl]-6-(1-methylpyrazol-4-yl)-3,4-dihydro-2H-quinoline-7-carbonitrile], the 50% inhibitory concentration (IC50) came out at 5.34 µM. `CC(=O)N1CCc2c(c(Nc3ccc(-c4cc(F)ccc4F)cc3)nn2C)C1` [Example 134, 1-[3-[7-methyl-6-(1-methylpyrazol-4-yl)-3,4-dihydro-2H-quinolin-1-yl]-1-[(3S)-tetrahydrofuran-3-yl]-6,7-dihydro-4H-pyrazolo[4,3-c]pyridin-5-yl]ethanone]: the IC50 amounted to 5.47 µM. Consider `CC(=O)N1CCc2c(c(Nc3ccc(-c4ccc(C#N)nc4)cc3)nn2C)C1` [Example 145, 1-[3-[7-methoxy-6-(1-methylpyrazol-4-yl)-3,4-dihydro-2H-quinolin-1-yl]-1-[(3S)-tetrahydrofuran-3-yl]-6,7-dihydro-4H-pyrazolo[4,3-c]pyridin-5-yl]ethanone], for which the IC50 is 4.4 µM. With `CC(=O)N1CCc2c(c(Nc3ccc(-c4cncc(C#N)c4)cc3)nn2C)C1` [Example 146, 1-[3-[7-(difluoromethoxy)-6-(1-methylpyrazol-4-yl)-3,4-dihydro-2H-quinolin-1-yl]-1-tetrahydropyran-4-yl-6,7-dihydro-4H-pyrazolo[4,3-c]pyridin-5-yl]ethanone] the figure was 5.32 µM. With `CNC(=O)c1ccc(-c2ccc(Nc3nn(C)c4c3CN(C(C)=O)CC4)cc2)cc1` [Example 149, 1-[3-[6-(1-methylpyrazol-4-yl)-7-(trifluoromethoxy)-3,4-dihydro-2H-quinolin-1-yl]-1-[(3S)-tetrahydrofuran-3-yl]-6,7-dihydro-4H-pyrazolo[4,3-c]pyridin-5-yl]ethanone], the IC50 amounted to 2.74 µM. The figure for `CNC(=O)c1cccc(-c2ccc(Nc3nn(C)c4c3CN(C(C)=O)CC4)cc2)c1` [Example 150, 3-[6-(1-methylpyrazol-4-yl)-3,4-dihydro-2H-quinolin-1-yl]-1-[(3S)-tetrahydrofuran-3-yl]-6,7-dihydro-4H-pyrazolo[4,3-c]pyridine-5-carboxamide] is 3.52 µM. The figure for `CNCCn1cc(-c2ccc(Nc3nn(C)c4c3CN(C(C)=O)CC4)cc2)cn1` [Example 168, 1-[1-methyl-3-[6-(1-methylpyrazol-4-yl)indolin-1-yl]-6,7-dihydro-4H-pyrazolo[4,3-c]pyridin-5-yl]ethanone] is 10.2 µM; for `CC(=O)N1CCc2c(c(Nc3ccc(-c4cnn(C)c4)cc3)nn2CCC#N)C1` [Example 184, 1-[3-[5-(1,5-dimethylpyrazol-4-yl)indolin-1-yl]-1-tetrahydrofuran-3-yl-6,7-dihydro-4H-pyrazolo[4,3-c]pyridin-5-yl]ethanone] it is 9.65 µM; for `CC(=O)N1CCc2c(c(Nc3ccc(-c4cnn(CCO)c4)cc3)nn2C)C1` [Example 187, 4-[1-(5-acetyl-1-tetrahydrofuran-3-yl-6,7-dihydro-4H-pyrazolo[4,3-c]pyridin-3-yl)indolin-5-yl]-1-methyl-pyrazole-3-carbonitrile] it is 12.3 µM.

On to `CCNC(=O)Cn1nc(Nc2cccc(C)c2)c2c1CCN(C(C)=O)C2` [Example 190, 1-[3-[6-fluoro-5-(1-methylpyrazol-4-yl)indolin-1-yl]-1-tetrahydrofuran-3-yl-6,7-dihydro-4H-pyrazolo[4,3-c]pyridin-5-yl]ethanone], for which the IC50 was determined as 28.4 µM. Consider `CC(=O)N1CCc2c(c(Nc3cccc(C)c3)nn2Cc2ccccc2)C1` [Example 203, 1-(5-acetyl-1-methyl-6,7-dihydro-4H-pyrazolo[4,3-c]pyridin-3-yl)indoline-6-carbonitrile], for which the IC50 is 2.63 µM. `CC(=O)N1CCc2c(c(Nc3cccc(C)c3)nn2CC2CCCN(C)C2)C1` (stereo not drawn) [Example 209, 1-[3-[4-fluoro-6-(1-methylpyrazol-4-yl)indolin-1-yl]-1-tetrahydrofuran-3-yl-6,7-dihydro-4H-pyrazolo[4,3-c]pyridin-5-yl]ethanone]: the IC50 was 6.05 µM. With `CC(=O)N1CCc2c(c(Nc3cccc(C)c3)nn2C(C)c2ccn(C)n2)C1` (stereo not drawn) [Example 210, 1-[3-[5-fluoro-6-(1-methylpyrazol-4-yl)indolin-1-yl]-1-tetrahydrofuran-3-yl-6,7-dihydro-4H-pyrazolo[4,3-c]pyridin-5-yl]ethanone], the IC50 came out at 8.46 µM. In the case of `CC(=O)N1CCc2c(c(Nc3cccc(C)c3)nn2C(C)CO)C1` (stereo not drawn) [Example 211, 1-(5-acetyl-1-methyl-4,5,6,7-tetrahydro-1H-pyrazolo[4,3-c]pyridin-3-yl)indoline-6-carboxylic Acid], the IC50 was greater than 19.7 µM. With `CC(=O)N1CCc2c(c(Nc3cccc(C)c3)nn2CCC2CCCN(C)C2)C1` (stereo not drawn) [Example 216, 1-[3-[4-fluoro-5-(1-methylpyrazol-4-yl)indolin-1-yl]-1-methyl-6,7-dihydro-4H-pyrazolo[4,3-c]pyridin-5-yl]ethanone] the figure was 6.89 µM. `CC(=O)N1CCc2c(c(Nc3cccc(C)c3)nn2C2CC2)C1` [Example 217, 1-[3-[7-fluoro-5-(1-methylpyrazol-4-yl)indolin-1-yl]-1-methyl-6,7-dihydro-4H-pyrazolo[4,3-c]pyridin-5-yl]ethanone]: the IC50 turned out to be 13.6 µM. With `CC(=O)N1CCc2c(c(Nc3ccc(-c4cnn(C)c4)cc3S(C)(=O)=O)nn2C2CCOC2)C1` (stereo not drawn) [Example 232, cyclopropyl(3-(6-(1-methyl-1H-pyrazol-4-yl)-3,4-dihydroquinolin-1(2H)-yl)-1-(tetrahydro-2H-pyran-4-yl)-6,7-dihydro-1H-pyrazolo[4,3-c]pyridin-5(4H)-yl)methanone] the figure was 15 µM; with `CC(=O)N1CCc2c(c(Nc3ccc(-c4cnn(C)c4)cc3F)nn2C(C)(C)CO)C1` [Example 244, 1-[3-[6-(difluoromethyl)-5-(1,5-dimethylpyrazol-4-yl)indolin-1-yl]-1-tetrahydropyran-4-yl-6,7-dihydro-4H-pyrazolo[4,3-c]pyridin-5-yl]ethanone], 6.66 µM.
